# Experimental data from the supplement of paper PMC9446081.
# In all, about 39,000 compounds went through this assay and about 220 (0.56%) showed activity. This is one part of the list.
# Tested on: Escherichia coli K-12 BW25113
# Assay: relative growth (OD600 normalised to plate interquartile mean) (fraction); higher = less growth inhibition, active = 0.2 or less
# Settings: 50 µM; LB; incubation time: overnight (16-24 h)
# 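Also: static incubation at 37 °C against the wild-type strain, values averaged over two biological replicates.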
row,SMILES,relative growth
1,Nc1nc(=O)c2ncn([C@H]3O[C@@H](COP(=O)(O)OP(O)(O)=S)[C@H](O)[C@@H]3O)c2[nH]1,inactive: 1.02
2,CCC1CN2CCC1CC2C(O)c1ccnc2ccc(OC)cc12 (centres undefined),inactive: 1.1
3,CN1[C@@H]2C[C@@H](O)C[C@H]1[C@@H]1O[C@@H]12,inactive: 1.12
4,COC(=O)[C@@]1(Cc2ccccc2N=[N+]=[N-])N=C(c2ccc(OCCCO)cc2)O[C@H]1c1ccccc1N=[N+]=[N-],inactive: 1.03
5,COc1cc(OC)c(OC)cc1C=O,inactive: 0.911
6,C#CC(C)(O)CC (centres undefined),inactive: 1.05
7,COc1cc2c(cc1O)CC1c3c(cc(O)c(OC)c3-2)CCN1C (centres undefined),inactive: 0.964
8,CC1=C2CC3C(CC=C4CC(O)CCC43C)C2CCC12OC1CC(C)CNC1C2C (centres undefined),inactive: 1.05
9,CCC(=O)OC1CCC2C3CCC4=CC(=O)CCC4(C)C3CCC12C (centres undefined),inactive: 0.95
10,NN=C(N)N,inactive: 0.988
11,C=CCN1C[C@H]2CN(C(C)C)C[C@H]2C1=O,inactive: 1.05
12,COC(=O)C[C@@H](CN)c1ccc(Cl)cc1,inactive: 1.01
13,CN1C2CCC1CC(O)C2 (centres undefined),inactive: 1.12
14,N[C@@H](Cc1ccccc1)c1ccc2c(c1)OCCO2,inactive: 0.994
15,CCOc1ccc(N2CCNCC2)nn1,inactive: 1
16,CN1CCc2cc3c(cc2C1O)OCO3.Cl (centres undefined),inactive: 1.01
17,Cc1ccc(N2CCO[C@@H]3CNCC[C@H]3C2)nn1,inactive: 1.01
18,CCOCC(=O)N1C[C@H]2CNC[C@H]2C1,inactive: 1.01
19,O[C@H]1CNC[C@@H]1N1CCCCC1,inactive: 1.04
20,C[C@]12CC[C@]3(C)OC[C@](CO)(CO1)N23,inactive: 1.01
21,Cl.NCC(=O)c1ccccc1,inactive: 0.975
22,N#[N+]CC(=O)OC[C@H](N)C(=O)O,inactive: 1.02
23,O=C1CCO1,inactive: 0.952
24,CCC1(CC)C(=O)NC(=O)NC1=O,inactive: 0.887
25,CN1CC(CNC(=O)OCc2ccccc2)CC2c3cccc4c3c(cn4C)CC21 (centres undefined),inactive: 0.991

row,SMILES,relative growth
1,CCOCC(=O)N[C@H]1CCSC1=O,inactive: 0.978
2,COCCCNC(=O)[C@@]1(Cc2ccccc2CN=[N+]=[N-])N=C(c2ccc(OCCCO)cc2)O[C@H]1c1ccccc1CN=[N+]=[N-],inactive: 1.03
3,NC(=O)C12CC(CN1)C2,inactive: 0.998
4,CN1C[C@@H]2CNC[C@@H]2C1=O,inactive: 1.03
5,COc1ccc2[nH]cc(CCN)c2c1,inactive: 0.995
6,C=CC1CN2CCC1CC2C(OC(=O)OCC)c1ccnc2ccc(OC)cc12 (centres undefined),inactive: 0.912
7,N[C@H]1Cc2ccccc2[C@@H]1O,inactive: 0.989
8,C[C@H]1O[C@H](n2cnc3c(N)ncnc32)C[C@@H]1O,inactive: 0.961
9,CC(C)C12CN3CCN(CC(C3)C1=O)C2,inactive: 0.994
10,C[C@H](CO)N1C[C@H](C)[C@H](CN(C)C(=O)Oc2cccc3ccccc23)OCc2cnnn2CCCC1=O,inactive: 0.991
11,N[C@@]1(C(=O)O)CC[C@@H](C(=O)O)C1.N[C@]1(C(=O)O)CC[C@H](C(=O)O)C1,inactive: 1.05
12,CCOC(=O)[C@H]1[C@@H](C=C(C)C)C1(C)C,inactive: 1.05
13,Cc1cnc(C(=O)N2C[C@H]3CNC[C@H]3C2)cn1,inactive: 0.981
14,CN(C)C(=O)Oc1cc(OC(=O)N(C)C)cc(C(O)CNC(C)(C)C)c1.Cl (centres undefined),inactive: 1.1
15,CCS(=O)(=O)N1C[C@@H]2CCN[C@@H]2C1,inactive: 1.01
16,COc1cc2c(c(OC)c1OC)-c1ccc(O)c(=O)cc1[C@H](N)CC2,inactive: 0.928
17,C=CC1CN2CCC1CC2C(O)c1ccnc2ccccc12 (centres undefined),inactive: 0.951
18,[N-]=[N+]=Nc1ccc2[nH]ccc2c1,inactive: 0.946
19,C[C@@H]1C(=O)NC[C@@H]2CN(CC3CC3)C[C@@H]21,inactive: 0.944
20,C[C@@H](O)CN1C[C@H]2C[C@@H](C1)c1cccc(=O)n1C2,inactive: 0.979
21,COc1cc(C(=O)O)cc(OC)c1OC,inactive: 1.08
22,N[C@@H](C(=O)O)c1cc(=O)[nH]o1,inactive: 0.969
23,NC[C@@H](O)c1ccc(Br)cc1,inactive: 1
24,O=[N+]([O-])c1ccc(O)c([N+](=O)[O-])c1,inactive: 0.802
25,C=C(C)[C@H]1O[C@H]2CC[C@@]3(C)[C@@](O)(CC[C@H]4[C@@H]5OC(C)(C)[C@H]6C[C@@H]7C(=C)Cc8c(Cl)cc9[nH]c(c5c9c8[C@@]76O)[C@@]43C)[C@]23O[C@@H]3[C@H]1O,inactive: 1.06

row,SMILES,relative growth
1,NCCCNCCSP(=O)(O)O,inactive: 1.1
2,Cc1[nH]c2ccc(O)cc2c1CCN,inactive: 0.972
3,FC(F)(F)c1nnc(N2CCNCC2)s1,inactive: 1.07
4,CNC(C)(C)Cc1ccccc1.O=S(=O)(O)O,inactive: 1.03
5,COc1ccc(OC)c(C(O)C(C)N)c1.Cl (centres undefined),inactive: 0.985
6,CC(C)(O)/C=C/C(=O)[C@](C)(O)[C@H]1[C@H](O)C[C@@]2(C)[C@H]3CC=C4[C@@H](CC(=O)C(=O)C4(C)C)[C@]3(C)C(=O)C[C@]12C,inactive: 0.979
7,NC(=O)c1cn([C@@H]2O[C@H](CO)[C@@H](O)[C@H]2O)c2ncnc(N)c12,inactive: 0.955
8,c1ccc2c(c1)[nH]c1cnccc12,inactive: 0.832
9,COc1cc(C2c3cc4c(cc3C(O)C3COC(=O)C23)OCO4)cc(OC)c1OC (centres undefined),inactive: 1.05
10,CN1C(=O)C(O)N=C(c2ccccc2)c2cc(Cl)ccc21 (centres undefined),inactive: 0.849
11,COc1c2c(cc3c1OCO3)CC[N+](C)=C2.[Cl-],inactive: 1.01
12,CCCCCCCCC(=O)NCc1ccc(O)c(OC)c1,inactive: 0.968
13,COc1cc2occc2c2oc(=O)ccc12,inactive: 0.886
14,COP(=S)(OC)Oc1cc(Cl)c(Cl)cc1Cl,active: 0.0496
15,CN1CCN(Cc2ccc[nH]2)CC1,inactive: 1.01
16,CS(=O)(=O)C1C[C@H]2CC[C@@H](C1)N2 (some centres undefined),inactive: 0.999
17,Nc1ccc([As](=O)(O)O)cc1,inactive: 0.955
18,NC(N)=NOCC[C@H](N)C(=O)O,inactive: 0.996
19,C[C@H](CO)N1C[C@H](C)[C@@H](CN(C)C(=O)Oc2cccc3ccccc23)OCc2cn(nn2)CCCC1=O,inactive: 0.981
20,CNCC(=O)c1ccc(O)cc1,inactive: 0.938
21,O=C(O)c1ccc(=O)[nH]c1,inactive: 0.976
22,S=C=Nc1cccc(C2(N3CCCCC3)CCCCC2)c1,inactive: 0.999
23,COC(=O)C[C@H]1CC[C@H]2NC[C@@H](O)COC[C@@H]2O1,inactive: 1
24,Cl.Cn1c(CCCC(=O)O)nc2cc(N(CCCl)CCCl)ccc21,inactive: 1.09
25,O=c1[nH]c2ccccc2n1C1CCN(CCCC(c2ccc(F)cc2)c2ccc(F)cc2)CC1,inactive: 0.939

row,SMILES,relative growth
1,O=C(c1ccco1)N1C[C@H]2CN[C@@H](C2)C1,inactive: 1
2,CC(=O)Nc1cc([As](=O)(O)O)ccc1O,inactive: 1
3,Cc1cc2c(C(C)C)c(O)c(O)c(C=O)c2c(O)c1-c1c(C)cc2c(C(C)C)c(O)c(O)c(C=O)c2c1O,inactive: 1.02
4,COc1cccc2c1cc([N+](=O)[O-])c1c(C(=O)O)cc3c(c12)OCO3,inactive: 1.02
5,O=C1C[C@H](c2ccccc2)[C@@H]2CNCCN12,inactive: 1.03
6,CCC1C2CC3C4N(C)c5ccccc5C45CC(C2C5O)N3C1O (centres undefined),inactive: 1.07
7,Cc1nc([N+](=O)[O-])c(N2CCNCC2)[nH]1,inactive: 1
8,NCC[C@H](NC(=O)[C@@H](N)CCCNC(N)=N[N+](=O)[O-])C(N)=O.O=CC(F)(F)F,inactive: 1.01
9,COc1ccc(OC(=O)N(C)C[C@H]2OCc3ccccc3-c3c(n(C)c4ccccc34)C(=O)N([C@@H](C)CO)C[C@@H]2C)cc1,inactive: 0.999
10,CN1C2CCC1CC(OC(=O)C(CO)c1ccccc1)C2 (centres undefined),inactive: 0.973
11,COc1cccc(N=[N+]=[N-])c1,inactive: 0.99
12,CC=C(C)C(=O)OC1CC(OC(C)=O)C2(C(=O)OC)COC3C2C12COC(O)(C(=O)OC)C2C(C)(C12OC1(C)C1CC2OC2OC=CC21O)C3O (centres undefined),inactive: 0.942
13,OC[C@H]1O[C@@H](Oc2c[nH]c3ccc(Br)c(Cl)c23)[C@H](O)[C@@H](O)[C@H]1O,inactive: 1.04
14,CCC(C(N)=O)N1CCCC1=O (centres undefined),inactive: 1.05
15,CN(C)C(=O)[C@@]1(Cc2ccccc2CN=[N+]=[N-])N=C(c2ccc(OCCCO)cc2)O[C@H]1c1ccccc1N=[N+]=[N-],inactive: 1.01
16,O=[N+]([O-])NC1=NCCN1Cc1ccc(Cl)nc1,inactive: 1.22
17,Nc1ccc(-c2ccccc2)cc1,inactive: 0.97
18,CCC(C)C1OC2(C=CC1C)CC1CC(CC=C(C)C(OC3CC(OC)C(OC4CC(OC)C(O)C(C)O4)C(C)O3)C(C)C=CC=C3COC4C(O)C(C)=CC(C(=O)O1)C34O)O2 (centres undefined) [ABAMECTIN (avermectin B1a shown)],inactive: 0.77
19,COCC(=O)N1C[C@@H]2c3ccccc3CN[C@@H]2C1,inactive: 0.986
20,Nc1ccc(N2CCNCC2)cc1,inactive: 0.98
21,Cc1nc(N)sc1CCN,inactive: 1.02
22,CC1OC(OC2C(O)C(O)C(O)C(O)C2O)C(N)CC1NC(=N)C(=O)O.Cl (centres undefined),inactive: 0.892
23,Cc1ccc(C=C2C(=O)NC(=O)NC2=O)cc1,inactive: 1.04
24,Cc1ccc(OC(=O)N(C)C[C@H]2OCc3ccccc3-c3c(n(C)c4ccccc34)C(=O)N([C@@H](C)CO)C[C@@H]2C)cc1,inactive: 0.99
